According to PMC3040723, “Three hydrophobic amino acids in Escherichia coli HscB make the greatest contribution to the stability of the HscB-IscU complex” (BMC Biochemistry, 2011):
Residue numbers refer to the chain shown, from its start.

How the values were obtained:
Assay in all cases: ITC; 2.5-4 mM apo-IscU (injection syringe) titrated into 0.25-0.4 mM HscB (sample cell); 25 °C; 50 mM HEPES pH 7.5, 150 mM NaCl, 4 mM TCEP
Conditions in all cases: both partners purified
HscB(S160A) = molecular target: T1, HscB(S160A) (E. coli, UniProt P0A6L9 1-171, S160A)
T1 construct: HscB, Escherichia coli, single alanine substitution; source: Escherichia coli, purified (DEAE-cellulose, size exclusion chromatography)
T1 sequence (looked up): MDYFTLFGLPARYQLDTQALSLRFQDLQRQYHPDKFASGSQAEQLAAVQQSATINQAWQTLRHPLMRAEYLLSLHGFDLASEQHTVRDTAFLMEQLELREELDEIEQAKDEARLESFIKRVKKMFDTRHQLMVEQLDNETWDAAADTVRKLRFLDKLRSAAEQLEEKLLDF

HscB(L96A) = molecular target: T2, HscB(L96A) (E. coli, UniProt P0A6L9 1-171, L96A)
T2 construct: HscB, Escherichia coli, single alanine substitution; Uniformly 15N-labelled for the NMR experiments; source: Escherichia coli, purified (DEAE-cellulose, size exclusion chromatography)
T2 sequence (looked up): T1 sequence (looked up) with L96A, A160S

HscB(K156A) = molecular target: T3, HscB(K156A) (E. coli, UniProt P0A6L9 1-171, K156A)
T3 construct: HscB, Escherichia coli, single alanine substitution; source: Escherichia coli, purified (DEAE-cellulose, size exclusion chromatography)
T3 sequence (looked up): T1 sequence (looked up) with K156A, A160S

HscB(T89A) = molecular target: T4, HscB(T89A) (E. coli, UniProt P0A6L9 1-171, T89A)
T4 construct: HscB, Escherichia coli, single alanine substitution; source: Escherichia coli, purified (DEAE-cellulose, size exclusion chromatography)
T4 sequence (looked up): T1 sequence (looked up) with T89A, A160S

HscB(E97A, E100A, E104A) = molecular target: T5, HscB(E97A, E100A, E104A) (E. coli, UniProt P0A6L9 1-171, E97A | E100A | E104A)
T5 construct: HscB, Escherichia coli, triple alanine substitution; also called (E97A, E100A, E104A) substitution; source: Escherichia coli, purified (DEAE-cellulose, size exclusion chromatography)
T5 sequence (looked up): T1 sequence (looked up) with E97A, E100A, E104A, A160S

HscB(L92A) = molecular target: T6, HscB(L92A) (E. coli, UniProt P0A6L9 1-171, L92A)
T6 construct: HscB, Escherichia coli, single alanine substitution; source: Escherichia coli, purified (DEAE-cellulose, size exclusion chromatography)
T6 sequence (looked up): T1 sequence (looked up) with L92A, A160S

HscB(D103A) = molecular target: T7, HscB(D103A) (E. coli, UniProt P0A6L9 1-171, D103A)
T7 construct: HscB, Escherichia coli, single alanine substitution; Uniformly 15N-labelled for the NMR experiments; source: Escherichia coli, purified (DEAE-cellulose, size exclusion chromatography)
T7 sequence (looked up): T1 sequence (looked up) with D103A, A160S

B1: apo-IscU (natural protein, E. coli, UniProt P0ACD4 1-128, looked up)
chain: MAYSEKVIDHYENPRNVGSFDNNDENVGSGMVGAPACGDVMKLQIKVNDEGIIEDARFKTYGCGSAIASSSLVTEWVKGKSLDEAQAIKNTDIAEELELPPVKIHCSILAEDAIKAAIADYKSKREAK
notes: No tag is mentioned; purified by ion exchange and gel filtration, so probably untagged whole protein; source: Escherichia coli, purified (DEAE-cellulose, DEAE-Biogel, size exclusion chromatography)
Ka (HscB(S160A)): 92000 M⁻¹ | dH (HscB(S160A)): -1.58 kcal/mol | stoichiometry N (HscB(S160A)): 1.05 | Ka (HscB(L96A)): 5000 M⁻¹ | dH (HscB(L96A)): -3.6 kcal/mol | stoichiometry N (HscB(L96A)): 0.44 | Ka (HscB(K156A)): 259000 M⁻¹ | dH (HscB(K156A)): -2.64 kcal/mol | stoichiometry N (HscB(K156A)): 0.93 | Ka (HscB(T89A)): 59000 M⁻¹ | dH (HscB(T89A)): -1 kcal/mol | stoichiometry N (HscB(T89A)): 1.08 | Ka (HscB(E97A, E100A, E104A)): 33000 M⁻¹ | dH (HscB(E97A, E100A, E104A)): -1.73 kcal/mol | stoichiometry N (HscB(E97A, E100A, E104A)): 0.68 | Ka (HscB(L92A)): 5000 M⁻¹ | dH (HscB(L92A)): 0.41 kcal/mol | stoichiometry N (HscB(L92A)): 0.7 | Ka (HscB(D103A)): 54000 M⁻¹ | dH (HscB(D103A)): -1.61 kcal/mol | stoichiometry N (HscB(D103A)): 1.04
